Results reported in PubChem BioAssay (NCATS).
Inconclusive means that the source gave no clear call. Such entries were picked first, then a sample of the others. Potencies beside an inconclusive call are fits to weak or partial responses and may not hold up. Active and inactive are the calls of the source. Unless noted, calls follow the shape of the dose curve; as a rule, active = well fitted curve in the direction sought with a large enough effect; inconclusive = small, poorly fitted or top-dose-only effect, or another doubt; inactive = no such curve, though single readings can be large; an effect the other way counts as inactive or inconclusive.

What was measured:
[1] = biological target: Aldehyde dehydrogenase, mitochondrial (Homo sapiens) (UniProt P05091); test: qHTS for Inhibitors of the Aldehyde Dehydrogenase Family (ALDH2) Confirmatory screens (AID 2061303; active = well fitted inhibition curve with a large enough effect; inconclusive = small, poorly fitted or top-dose-only effect; inactive = no such curve, though single readings can be large or run the other way; title and protocol of this record describe different tests; also: nearly all actives have a fitted effect of over 45% in size); conditions: ALDH inhibition qHTS; activity change, negative = inhibition: at 45.4 µM (top of the series)
[2] = qHTS for Inhibitors of the Aldehyde Dehydrogenase Family (ALDH1A2, ALDH1A3, ALDH2, ALDH3A1) (AID 2061307); conditions: ALDH inhibition qHTS; activity change, negative = inhibition: at 50.3 µM (top of the series) unless noted; also: nearly all actives have a fitted effect of over 50% in size; as to Potency: test system not described further here
[3] = biological target: Aldehyde dehydrogenase, mitochondrial (Homo sapiens) (UniProt P05091); test: qHTS for Inhibitors of the Aldehyde Dehydrogenase Family (ALDH2) Primary screen (AID 2061308); conditions: ALDH2 enzyme inhibition qHTS, 1536-well; series mostly up to 56 µM; also: nearly all actives have a fitted effect of over 55% in size
[4] = biological target: Retinaldehyde dehydrogenase 3 (Homo sapiens) (UniProt P47895); test: qHTS for Inhibitors of the Aldehyde Dehydrogenase Family (ALDH1A3) Confirmatory screens (AID 2061311); conditions: ALDH inhibition qHTS; activity change, negative = inhibition: at 46 µM (top of the series); series mostly up to 46 µM; also: nearly all actives have a fitted effect of over 60% in size
[5] = biological target: Retinal dehydrogenase 2 (Homo sapiens) (UniProt O94788); test: qHTS for Inhibitors of the Aldehyde Dehydrogenase Family (ALDH1A2) Confirmation screens (AID 2061314); conditions: ALDH1A2 enzyme inhibition qHTS confirmation; series mostly up to 45.9 µM; also: nearly all actives have a fitted effect of over 65% in size
[6] = biological target: Aldehyde dehydrogenase 1A1 (Homo sapiens) (UniProt P00352); test: qHTS for Inhibitors of the Aldehyde Dehydrogenase Family (ALDH1A1) Confirmatory screens (AID 2061316); conditions: ALDH inhibition qHTS; activity change, negative = inhibition: at 47.3 µM (top of the series); series mostly up to 47.3 µM; also: nearly all actives have a fitted effect of over 65% in size
[7] = biological target: Retinaldehyde dehydrogenase 3 (Homo sapiens) (UniProt P47895); test: qHTS for Inhibitors of the Aldehyde Dehydrogenase Family (ALDH1A3) Primary screen (AID 2061315); conditions: ALDH inhibition qHTS; activity change, negative = inhibition: at 56 µM (top of the series) unless noted
Potency is read from the fitted curve at half-maximal effect; tags tell the direction and shape of the fitted curve.

Structure (SMILES) | Potency [1] | Potency [2] | Potency [3] | Potency [4] | Potency [5] | Potency [6] | Potency [7]
O=C1c2ccccc2NC(c2ccc(-c3cccc(F)c3)o2)N1O (configuration not stated) | active: 20.1 µM | inconclusive: 28.3 µM [inhibitor, single point] | inconclusive: 20 µM [inhibitor, partial curve] | inconclusive: 10.1 µM [inhibitor, partial curve] | inconclusive: 22.5 µM [inhibitor, partial curve, poor fit] | active: 6.34 µM | 
CC(=O)Nc1sc2c(c1-c1nc3ccccc3s1)CNCC2 | active: 20.1 µM | inconclusive: 17.9 µM [inhibitor, partial curve] | inconclusive: 31.6 µM [inhibitor, single point] | inconclusive: 14.2 µM [inhibitor, partial curve] | inconclusive: 15.9 µM [inhibitor, partial curve] | active: 8.96 µM | 
CN(Cc1ccc(-c2ccc(C#N)cc2)o1)c1ccc(N2CCN(C(=O)OC(C)(C)C)CC2)cc1 | inconclusive: 11.3 µM [inhibitor, partial curve] | active: 1.79 µM | inconclusive: 2.24 µM [inhibitor, full curve, poor fit] | active: 11.3 µM | inconclusive: 8.96 µM [inhibitor, full curve] | active: 11.3 µM | inconclusive: 3.55 µM [inhibitor, full curve]
COc1cc(O)c(C(CC(=O)N2CCN(c3ccc(F)cc3)CC2)c2ccc3c(c2)OCO3)c(OC)c1 (configuration not stated) | active: 17.8 µM | inconclusive: 1.58 µM [inhibitor, full curve, poor fit] | inconclusive: 14.1 µM [inhibitor, partial curve, poor fit] | active: 12.7 µM | inconclusive: 2.52 µM [inhibitor, full curve] | inconclusive: 22.5 µM [inhibitor, partial curve, poor fit] | 
COc1ccc(NC(=O)c2cccnc2)cc1S(=O)(=O)Nc1ccc(Br)cc1 | inconclusive: 22.5 µM [inhibitor, partial curve, poor fit] | inactive | inconclusive: 1.26 µM [inhibitor, full curve, poor fit] | inconclusive: 20.1 µM [inhibitor, partial curve] | inconclusive: 25.2 µM [inhibitor, single point] | inconclusive: 20.1 µM [inhibitor, partial curve] | 
S=C(NCCCc1cnc[nH]1)NCCCN(Cc1ccccc1)c1ccc(Br)cn1 | inconclusive: 20.1 µM [inhibitor, partial curve, poor fit] | inconclusive: 0.0135 µM [inhibitor, full curve, poor fit] | inconclusive: 15.8 µM [inhibitor, partial curve] | inactive | inconclusive: 8.96 µM [inhibitor, full curve, poor fit] | inconclusive: 20.1 µM [inhibitor, partial curve] | 
CCOc1cc(N2CCC(O)CC2)ccc1Nc1ncc2c(n1)N(C1CCCC1)CCC(=O)N2C | inconclusive: 15.9 µM [inhibitor, partial curve] | inconclusive: 11.3 µM [inhibitor, partial curve] | inconclusive: 25.1 µM [inhibitor, single point] | active: 20.1 µM | inconclusive: 3.57 µM [inhibitor, full curve] | inactive | inconclusive: 15.8 µM [inhibitor, partial curve]
CC(=O)Nc1sc2c(c1-c1nc3ccccc3s1)CCN(C1COC1)C2 | inconclusive: 11.3 µM [inhibitor, partial curve] | inconclusive: 22.4 µM [inhibitor, partial curve] | inconclusive: 11.2 µM [inhibitor, partial curve] | inconclusive: 15.9 µM [inhibitor, partial curve] | active: 14.2 µM | active: 4 µM | 
COc1ccnc(NC(=S)N2CCN(c3cccc(Cl)c3Cl)CC2)c1 | inconclusive: 0.501 µM [inhibitor, full curve, poor fit] | active: 10 µM | inconclusive: 3.55 µM [inhibitor, full curve] | inconclusive: 2.25 µM [inhibitor, full curve] | inconclusive: 10.1 µM [inhibitor, partial curve] | active: 4 µM | inconclusive: 2.24 µM [inhibitor, full curve]
